Some of the results follow. Values were computed here from the reads of four pooled replicates and scatter widely.
These sequences were tested against T1, Pho4 (S. cerevisiae) (UniProt P07270) (assay: relative binding free energy (BET-seq); higher = weaker binding). Conditions: reference: library average.
T1 sequence: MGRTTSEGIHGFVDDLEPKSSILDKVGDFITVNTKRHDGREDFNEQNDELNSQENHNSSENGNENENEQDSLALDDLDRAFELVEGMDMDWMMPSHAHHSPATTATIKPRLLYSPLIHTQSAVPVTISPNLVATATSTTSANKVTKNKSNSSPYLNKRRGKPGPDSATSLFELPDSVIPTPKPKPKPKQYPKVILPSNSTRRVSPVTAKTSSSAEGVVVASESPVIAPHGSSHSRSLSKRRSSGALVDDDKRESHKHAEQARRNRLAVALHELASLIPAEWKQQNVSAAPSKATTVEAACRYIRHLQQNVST
In the case of GTCGTCACGTGGGTTG, the “relative binding free energy” value was 0.16 kcal/mol.
With TCGGTCACGTGGTGCA the “relative binding free energy” value was 0.03 kcal/mol.
With TAGGACACGTGCGGTA the “relative binding free energy” value was 0 kcal/mol.
In the case of GTGGTCACGTGCAGTT, the “relative binding free energy” value was 0.16 kcal/mol.
TCGGGCACGTGTGAGG was tested, and the “relative binding free energy” value was 0.01 kcal/mol.
In the case of TGTTGCACGTGGGTTT, the “relative binding free energy” value was -0.04 kcal/mol.
With TCGGCCACGTGGAGGG the “relative binding free energy” value was -0.23 kcal/mol.
AGAGGCACGTGGGGAA was tested, and the “relative binding free energy” value was -0.23 kcal/mol.
CAGGCCACGTGAGGTG was tested, and the “relative binding free energy” value was 0.02 kcal/mol.
For TTGGTCACGTGAATAA, the “relative binding free energy” value was 0.31 kcal/mol.
In the case of GTTTCCACGTGTTCGG, the “relative binding free energy” value was 0.23 kcal/mol.
For AATGTCACGTGATCGG, the “relative binding free energy” value was 0.17 kcal/mol.
With TAATGCACGTGGCGTG the “relative binding free energy” value was -0.05 kcal/mol.
In the case of TTGTACACGTGATTAG, the “relative binding free energy” value was 0.08 kcal/mol.
In the case of TTCAGCACGTGTCAGG, the “relative binding free energy” value was -0.04 kcal/mol.
In the case of AGGCGCACGTGTAAGT, the “relative binding free energy” value was -0.01 kcal/mol.
For GTGTGCACGTGTTTCT, the “relative binding free energy” value was 0.01 kcal/mol.
TGAGGCACGTGGCTGA was tested, and the “relative binding free energy” value was -0.2 kcal/mol.
With GGTGCCACGTGTTTAT the “relative binding free energy” value was -0.1 kcal/mol.
With TTGTACACGTGTGTTC the “relative binding free energy” value was 0.15 kcal/mol.
In the case of GGGGTCACGTGGCTGA, the “relative binding free energy” value was 0.05 kcal/mol.
For AATGGCACGTGTCAGG, the “relative binding free energy” value was -0.13 kcal/mol.
For TATAGCACGTGGATAG, the “relative binding free energy” value was -0.07 kcal/mol.
For TAAATCACGTGGAGTA, the “relative binding free energy” value was 0.13 kcal/mol.
For CGGTGCACGTGGAACG, the “relative binding free energy” value was 0.04 kcal/mol.
In the case of CTGTGCACGTGAAGTT, the “relative binding free energy” value was 0.08 kcal/mol.
With ATGCACACGTGGGGAG the “relative binding free energy” value was -0.15 kcal/mol.
For TTAAGCACGTGTAGAA, the “relative binding free energy” value was 0.03 kcal/mol.
For GGTTCCACGTGGCAGG, the “relative binding free energy” value was -0.02 kcal/mol.
TTAGACACGTGAGCTG was tested, and the “relative binding free energy” value was 0.36 kcal/mol.
For GTATGCACGTGGAAGT, the “relative binding free energy” value was 0.08 kcal/mol.
For GAGCTCACGTGGTTGT, the “relative binding free energy” value was 0.39 kcal/mol.
With ATGTCCACGTGCGTGG the “relative binding free energy” value was -0.09 kcal/mol.
TAGATCACGTGAAGGG was tested, and the “relative binding free energy” value was 0.42 kcal/mol.
In the case of AATTTCACGTGTCTTT, the “relative binding free energy” value was 0.26 kcal/mol.
For CGTTGCACGTGCTTGG, the “relative binding free energy” value was -0.21 kcal/mol.
For TCTTTCACGTGTAGGA, the “relative binding free energy” value was 0.25 kcal/mol.
TTCTGCACGTGCAGTG was tested, and the “relative binding free energy” value was -0.13 kcal/mol.
With TCAGACACGTGTGGTG the “relative binding free energy” value was 0.08 kcal/mol.
With GGGATCACGTGTGCAT the “relative binding free energy” value was 0.16 kcal/mol.
In the case of GGGTGCACGTGCGGTT, the “relative binding free energy” value was -0.02 kcal/mol.
For ATTAGCACGTGTTATT, the “relative binding free energy” value was -0.01 kcal/mol.
In the case of GGTTTCACGTGAAGTG, the “relative binding free energy” value was 0.37 kcal/mol.
With TTCTACACGTGTTGGG the “relative binding free energy” value was -0.02 kcal/mol.
In the case of TTGTACACGTGTTATC, the “relative binding free energy” value was 0.11 kcal/mol.
For AGGGCCACGTGGGCAT, the “relative binding free energy” value was -0.18 kcal/mol.
In the case of TCTATCACGTGGCGTT, the “relative binding free energy” value was 0.03 kcal/mol.
In the case of CTGTTCACGTGTCTGG, the “relative binding free energy” value was 0.23 kcal/mol.
With ATATTCACGTGAATTA the “relative binding free energy” value was 0.46 kcal/mol.
With GTGATCACGTGGGGTG the “relative binding free energy” value was -0.05 kcal/mol.
In the case of GATGTCACGTGTAGAG, the “relative binding free energy” value was 0.15 kcal/mol.
With TATTACACGTGATTGT the “relative binding free energy” value was 0.21 kcal/mol.
In the case of TGGGACACGTGTGTAG, the “relative binding free energy” value was 0.08 kcal/mol.
With CGGGCCACGTGGTAGG the “relative binding free energy” value was -0.07 kcal/mol.
For CTTTTCACGTGGGAGG, the “relative binding free energy” value was 0.15 kcal/mol.
With CGGGACACGTGTTAGG the “relative binding free energy” value was -0.02 kcal/mol.
For GTTTGCACGTGGTAAA, the “relative binding free energy” value was 0.03 kcal/mol.
In the case of GGGTACACGTGGGTAT, the “relative binding free energy” value was 0.11 kcal/mol.
In the case of GTGGGCACGTGCGTGA, the “relative binding free energy” value was -0.13 kcal/mol.
For CGTGGCACGTGGGACT, the “relative binding free energy” value was -0.14 kcal/mol.
For TGGTTCACGTGATAAG, the “relative binding free energy” value was 0.38 kcal/mol.
GCTGTCACGTGGGAGT was tested, and the “relative binding free energy” value was 0.05 kcal/mol.
In the case of TGTGGCACGTGACGAG, the “relative binding free energy” value was 0.05 kcal/mol.
With TGTCTCACGTGTCTGT the “relative binding free energy” value was 0.19 kcal/mol.
In the case of AGTTACACGTGGAGGC, the “relative binding free energy” value was -0.05 kcal/mol.
In the case of TGAACCACGTGTAGGG, the “relative binding free energy” value was -0.03 kcal/mol.
With ATGTGCACGTGTGGCC the “relative binding free energy” value was 0.01 kcal/mol.
For TATCGCACGTGGTAGG, the “relative binding free energy” value was -0.17 kcal/mol.
With AGTGTCACGTGATGCA the “relative binding free energy” value was 0.12 kcal/mol.
TTTGACACGTGCGGGC was tested, and the “relative binding free energy” value was -0.03 kcal/mol.
With TGGAGCACGTGATGTG the “relative binding free energy” value was 0 kcal/mol.
TATCACACGTGTGTTG was tested, and the “relative binding free energy” value was -0.01 kcal/mol.
With TCTTCCACGTGGTGTG the “relative binding free energy” value was -0.04 kcal/mol.
TTGTTCACGTGGTTCT was tested, and the “relative binding free energy” value was 0.15 kcal/mol.
For TGAAGCACGTGGCAAG, the “relative binding free energy” value was 0.04 kcal/mol.
In the case of GTTGGCACGTGCATAT, the “relative binding free energy” value was -0.23 kcal/mol.
For GAACGCACGTGGTATG, the “relative binding free energy” value was -0.11 kcal/mol.
With TGGCTCACGTGTTAGA the “relative binding free energy” value was 0.32 kcal/mol.
GAGTCCACGTGGCGTG was tested, and the “relative binding free energy” value was 0.05 kcal/mol.
For CTTGTCACGTGTCGTG, the “relative binding free energy” value was 0.08 kcal/mol.
For AGCTTCACGTGGTGCT, the “relative binding free energy” value was 0.16 kcal/mol.
For ATAGGCACGTGTGGTG, the “relative binding free energy” value was -0.15 kcal/mol.
In the case of ATCTGCACGTGGTCTT, the “relative binding free energy” value was 0.02 kcal/mol.
In the case of TAGGACACGTGTCGGT, the “relative binding free energy” value was 0.06 kcal/mol.
With CGGGGCACGTGGAGTA the “relative binding free energy” value was -0.09 kcal/mol.
With TTCGACACGTGTGCGT the “relative binding free energy” value was -0.05 kcal/mol.
For TGGGGCACGTGGACGG, the “relative binding free energy” value was -0.21 kcal/mol.
With AAGTGCACGTGAATGA the “relative binding free energy” value was 0.21 kcal/mol.
In the case of TTGAGCACGTGAGGCT, the “relative binding free energy” value was 0.19 kcal/mol.
TTTAGCACGTGTAGGC was tested, and the “relative binding free energy” value was -0.03 kcal/mol.
With AACGTCACGTGTAGTG the “relative binding free energy” value was 0.23 kcal/mol.
With TGGGACACGTGATGCT the “relative binding free energy” value was 0.18 kcal/mol.
GGCGCCACGTGGTAGG was tested, and the “relative binding free energy” value was -0.04 kcal/mol.
In the case of TCTTGCACGTGGCAGG, the “relative binding free energy” value was -0.05 kcal/mol.
ATAAGCACGTGTTTTG was tested, and the “relative binding free energy” value was -0.08 kcal/mol.
In the case of CGACGCACGTGTGTGT, the “relative binding free energy” value was -0.1 kcal/mol.
With TGAAACACGTGGCAGG the “relative binding free energy” value was 0.05 kcal/mol.
For AATAGCACGTGGGCTA, the “relative binding free energy” value was -0.16 kcal/mol.
With CGAGACACGTGTTGTA the “relative binding free energy” value was 0.12 kcal/mol.
For GGGGTCACGTGGGCAG, the “relative binding free energy” value was 0.1 kcal/mol.
For ATGTTCACGTGTTTGC, the “relative binding free energy” value was 0.13 kcal/mol.
TTTATCACGTGACAGT was tested, and the “relative binding free energy” value was 0.19 kcal/mol.
With TTTAGCACGTGGTATG the “relative binding free energy” value was -0.17 kcal/mol.
With GCGAGCACGTGTATGT the “relative binding free energy” value was -0.02 kcal/mol.
With GATGTCACGTGGGGAG the “relative binding free energy” value was -0.01 kcal/mol.
For GGAGGCACGTGGCAGT, the “relative binding free energy” value was -0.1 kcal/mol.
In the case of TATGGCACGTGTTAAT, the “relative binding free energy” value was -0.02 kcal/mol.
TGATGCACGTGTGCGT was tested, and the “relative binding free energy” value was -0.04 kcal/mol.
In the case of TGATGCACGTGACTGT, the “relative binding free energy” value was -0.01 kcal/mol.
For ACTGTCACGTGAGAGT, the “relative binding free energy” value was 0.2 kcal/mol.
For TGGTCCACGTGTGGAC, the “relative binding free energy” value was 0.26 kcal/mol.
In the case of CGTTACACGTGAGTTG, the “relative binding free energy” value was 0.2 kcal/mol.
GTTTACACGTGTCGTG was tested, and the “relative binding free energy” value was 0.19 kcal/mol.
In the case of AGGTTCACGTGGCATT, the “relative binding free energy” value was 0.11 kcal/mol.
With TGCACCACGTGTGTTT the “relative binding free energy” value was 0.11 kcal/mol.

From the BET-seq Pho4 binding data (Le et al. 2018)
